Measurements published in the supplement of paper PMC7826260.
This is one part of the list. Viral Rep nickase domains cut single-stranded DNA in vitro at 3 µM enzyme and 37 °C for 1 h; the strands have 90 letters, of which the middle is given. Uncut reads are compared with the no-enzyme pool on a log2 scale; more negative means more cut, near 0 not cut, and no call is made. The scaling is to total reads; values above 0 arise when much of the pool is cut.

Columns and labels:
Test in all cases: uncleaved DNA left, log2 of reads against the no-enzyme library (log2 ratio); higher = less cleavage (more negative = more Rep cleavage of the k-mer); sequences stand for … in CTCGTCCG…ACCGGAGA
[1] = system: T1, Rep nickase domain of Muscovy duck circovirus
T1 sequence (protein, residues 1-111, tag omitted): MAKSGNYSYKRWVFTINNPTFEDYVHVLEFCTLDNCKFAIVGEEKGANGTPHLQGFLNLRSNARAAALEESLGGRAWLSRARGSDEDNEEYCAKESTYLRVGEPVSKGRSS
Procedure: (§1)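 A pool of 90-nt single-stranded DNAs with seven random bases just before the constant AC of the nick site (name = the seven bases) was cut by 3 µM recombinant His6-SUMO-tagged Rep nickase domain (300 nM DNA, 50 mM HEPES pH 8.0, 50 mM NaCl, 1 mM MnCl2, 1 h, 37 °C, three replicates). Uncut DNA was amplified and sequenced.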

[2] = system: T2, Rep nickase domain of banana bunchy top virus
T2 sequence (protein, residues 1-94, tag omitted): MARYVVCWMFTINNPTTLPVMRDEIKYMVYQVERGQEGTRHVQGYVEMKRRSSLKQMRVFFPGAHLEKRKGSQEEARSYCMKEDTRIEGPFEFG
Procedure: as §1

[3] = system: T3, Rep nickase domain of cabbage leaf curl virus
T3 sequence (protein, residues 1-116, tag omitted): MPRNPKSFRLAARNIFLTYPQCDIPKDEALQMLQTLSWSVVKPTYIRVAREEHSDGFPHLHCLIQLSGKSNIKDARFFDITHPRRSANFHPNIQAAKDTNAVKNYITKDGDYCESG
Procedure: as §1

[4] = system: T4, Rep nickase domain of chickpea chlorotic dwarf virus
T4 sequence (protein, residues 1-124, tag omitted): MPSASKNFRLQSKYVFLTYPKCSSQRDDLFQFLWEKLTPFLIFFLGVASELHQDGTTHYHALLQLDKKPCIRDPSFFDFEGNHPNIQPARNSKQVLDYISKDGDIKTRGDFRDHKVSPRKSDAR
Procedure: as §1

[5] = system: T5, Rep nickase domain of faba bean necrotic yellows virus
T5 sequence (protein, residues 1-98, tag omitted): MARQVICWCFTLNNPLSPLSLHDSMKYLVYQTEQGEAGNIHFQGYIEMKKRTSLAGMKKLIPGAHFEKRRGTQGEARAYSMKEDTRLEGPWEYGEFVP
Procedure: as §1

[6] = system: T6, Rep nickase domain of maize striate mosaic virus
T6 sequence (protein, residues 1-117, tag omitted): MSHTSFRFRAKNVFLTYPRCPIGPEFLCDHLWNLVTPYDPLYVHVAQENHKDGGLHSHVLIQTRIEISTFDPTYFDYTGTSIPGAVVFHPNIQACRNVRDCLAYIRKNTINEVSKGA
Procedure: as §1

[7] = system: T7, Rep nickase domain of porcine circovirus 2
T7 sequence (protein, residues 2-116, tag omitted): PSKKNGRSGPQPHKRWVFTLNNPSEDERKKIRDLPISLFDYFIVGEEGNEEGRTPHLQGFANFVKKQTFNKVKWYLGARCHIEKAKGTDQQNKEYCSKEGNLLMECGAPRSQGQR
Procedure: as §1

[8] = system: T8, Rep nickase domain of tomato yellow leaf curl virus
T8 sequence (protein, residues 1-136, tag omitted): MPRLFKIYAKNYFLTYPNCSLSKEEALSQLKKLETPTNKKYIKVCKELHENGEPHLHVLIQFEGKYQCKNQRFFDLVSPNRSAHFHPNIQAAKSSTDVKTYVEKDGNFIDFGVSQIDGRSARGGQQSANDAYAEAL
Procedure: as §1

[9] = system: T9, Rep nickase domain of wheat dwarf virus
T9 sequence (protein, residues 1-137, tag omitted): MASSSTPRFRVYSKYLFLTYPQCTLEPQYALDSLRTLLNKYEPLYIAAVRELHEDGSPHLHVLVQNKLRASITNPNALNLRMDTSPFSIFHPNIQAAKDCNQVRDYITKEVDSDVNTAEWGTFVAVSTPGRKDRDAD
Procedure: as §1

Row | Sequence | uncleaved DNA left (log2) [1] | uncleaved DNA left (log2) [2] | uncleaved DNA left (log2) [3] | uncleaved DNA left (log2) [4] | uncleaved DNA left (log2) [5] | uncleaved DNA left (log2) [6] | uncleaved DNA left (log2) [7] | uncleaved DNA left (log2) [8] | uncleaved DNA left (log2) [9]
1 | TATCGTA | -0.0978 | 0.0575 | -0.0619 | -1.65 | -0.0149 | -0.833 | -0.167 | 0.00475 | -0.0841
2 | AAGACAA | 0.17 | 0.169 | 0.351 | 0.642 | 0.101 | 0.785 | 0.104 | 0.106 | 0.281
3 | AAAATAC | -0.00266 | -0.0569 | -0.156 | -1.03 | -0.00929 | -1 | 0.037 | -0.0514 | -0.00394
4 | GCTTCTT | -0.999 | -0.0485 | 0.0979 | -1.01 | -0.0458 | 0.4 | -2.43 | 0.094 | 0.104
5 | TCTATAA | 0.14 | -0.00322 | -0.0106 | -0.066 | 0.0225 | -0.336 | 0.0019 | -0.0543 | -0.0674
6 | AGACGCT | -0.00494 | -0.00966 | 0.521 | 0.264 | -0.009 | 0.983 | 0.0784 | -0.0721 | 0.0154
7 | ACATTGG | 0.00457 | 0.0552 | -0.769 | -0.0333 | 0.0543 | -1.02 | 0.174 | 0.16 | -0.0269
8 | GTGGACT | -0.000757 | 0.138 | 0.844 | 1.96 | -0.103 | 2.3 | 0.168 | -0.0308 | 0.143
9 | AATCTCA | -0.0157 | 0.0308 | -0.211 | -1.59 | -0.0557 | 0.21 | -0.123 | 0.00763 | 0.0277
10 | AGTGCCG | -0.0876 | -0.203 | -0.807 | -0.647 | -0.138 | -1.06 | -0.0338 | -0.206 | -0.136
11 | CAGCCCT | -0.138 | -0.0821 | -0.0562 | -2.4 | -0.128 | 0.0252 | -2.06 | -0.0985 | -0.0993
12 | TCGTGTG | 0.133 | -0.087 | -0.76 | -0.496 | 0.135 | -1.01 | 0.129 | 0.0647 | -0.154
13 | TTAAGCC | -0.0424 | -0.107 | -3.14 | -2.9 | 0.00622 | -2.38 | -0.0409 | -0.154 | -1.58
14 | CAACAGT | 0.0783 | -0.0422 | -0.625 | -2.62 | -0.0709 | -0.909 | -0.0244 | 0.0677 | -0.0154
15 | AACGTCT | -0.0189 | -0.0271 | -0.351 | -2.52 | -0.0611 | -0.374 | -0.433 | -0.0106 | -0.152
16 | GAAGACG | 0.167 | 0.024 | -0.142 | 0.0425 | 0.0253 | -0.146 | 0.216 | 0.0195 | 0.0401
17 | ATGGCGA | 0.0997 | -0.0958 | -0.646 | 0.201 | 0.0462 | -0.648 | 0.154 | 0.078 | -0.103
18 | GATAGAA | 0.00626 | 0.102 | 0.23 | 0.671 | 0.0613 | 0.742 | 0.0509 | 0.021 | 0.115
19 | ATGGTAC | -0.0469 | 0.0382 | -0.0218 | 0.237 | 0.017 | -0.225 | 0.0162 | 0.0109 | 0.0263
20 | CTTCACA | -0.122 | 0.129 | -0.113 | -1.49 | -0.00751 | -0.592 | -0.123 | 0.102 | 0.128
21 | ATTAAGC | -0.0161 | 0.0221 | -0.216 | -0.451 | 0.0578 | -1.23 | 0.143 | 0.101 | 0.0141
22 | TATAACA | 0.0862 | -0.00166 | -0.464 | -2.69 | -0.0528 | -0.377 | -0.132 | -0.000199 | -0.0868
23 | AGCCACA | -0.00701 | 0.0953 | 0.203 | 0.0258 | 0.0766 | 0.762 | -0.066 | 0.0324 | 0.115
24 | GGTCGCA | 0.0742 | 0.104 | 0.552 | 1.5 | 0.0466 | 1.75 | 0.0901 | 0.0235 | 0.096
25 | GAATGGA | -0.026 | 0.0458 | 0.11 | 0.278 | 0.00504 | 0.101 | -0.203 | -0.0657 | -0.00732
26 | GGTTAGC | 0.0673 | 0.127 | 0.358 | 0.859 | 0.05 | 0.934 | 0.17 | 0.0642 | 0.0167
27 | TCACCTC | 0.0879 | 0.00282 | 0.0881 | -0.176 | -0.00588 | 0.206 | -0.129 | 0.109 | 0.000476
28 | CCCCGGA | 0.0634 | -0.0188 | 0.183 | 0.431 | 0.0769 | 0.0695 | 0.149 | -0.116 | -0.109
29 | GGGGCAT | 0.0674 | 0.0398 | 0.907 | 2.11 | 0.000192 | 2.34 | 0.178 | -0.244 | 0.147
30 | TCGTGTT | -3.18 | -1.33 | -2.66 | -3.19 | -2.54 | -0.717 | -3.44 | -0.0451 | -2.01
